# From the supplement of paper PMC8728848
# This is one part of the list.
# B1: FliC (Pseudomonas aeruginosa), P72151 (protein)
# chain: MALTVNTNIASLNTQRNLNASSNDLNTSLQRLTTGYRINSAKDDAAGLQISNRLSNQISGLNVATRNANDGISLAQTAEGALQQSTNILQRIRDLALQSANGSNSDADRAALQKEVAAQQAELTRISDTTTFGGRKLLDGSFGTTSFQVGSNAYETIDISLQNASASAIGSYQVGSNGAGTVASVAGTATASGIASGTVNLVGGGQVKNIAIAAGDSAKAIAEKMDGAIPNLSARARTVFTADVSGVTGGSLNFDVTVGSNTVSLAGVTSTQDLADQLNSNSSKLGITASINDKGVLTITSATGENVKFGAQTGTATAGQVAVKVQGSDGKFEAAAKNVVAAGTAATTTIVTGYVQLNSPTAYSVSGTGTQASQVFGNASAAQKSSVASVDISTADGAQNAIAVVDNALAAIDAQRADLGAVQNRFKNTIDNLTNISENATNARSRIKDTDFAAETAALSKNQVLQQAGTAILAQANQLPQAVLSLLR
# What was measured:
# Experiment in all cases: glycan array binding signal (z-score within array); higher = stronger binding
# Conditions in all cases: glycan notation: IUPAC condensed, linker removed
# Fuc(a1-2)Gal = target: Fuc(a1-2)Gal
# Method in brief: (§1)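 Columns mapping to the same glycan were averaged after glycan names were converted to IUPAC-condensed notation. The data come from 3228 arrays in the Consortium for Functional Glycomics database, limited to those with an available protein sequence. Binding is reported as a within-array Z-score averaged across arrays of one protein sequence and across linkers.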
# Fuc(a1-2)Gal(b1-3)GalNAc = target: Fuc(a1-2)Gal(b1-3)GalNAc
# Method in brief: as §1
# [1] = target: Fuc(a1-2)Gal(b1-3)GalNAc(a1-3)[Fuc(a1-2)]Gal(b1-4)Glc
# Method in brief: as §1
# [2] = target: Fuc(a1-2)Gal(b1-3)GalNAc(a1-3)[Fuc(a1-2)]Gal(b1-4)GlcNAc
# Method in brief: as §1
# [3] = target: Fuc(a1-2)Gal(b1-3)GalNAc(b1-3)Gal
# Method in brief: as §1
# [4] = target: Fuc(a1-2)Gal(b1-3)GalNAc(b1-3)Gal(a1-4)Gal(b1-4)Glc
# Method in brief: as §1
# [5] = target: Fuc(a1-2)Gal(b1-3)GalNAc(b1-4)[Neu5Ac(a2-3)]Gal(b1-4)Glc
# Method in brief: as §1
# Fuc(a1-2)Gal(b1-3)GlcNAc = target: Fuc(a1-2)Gal(b1-3)GlcNAc
# Method in brief: as §1
# [6] = target: Fuc(a1-2)Gal(b1-3)GlcNAc(b1-2)Man(a1-3)[Fuc(a1-2)Gal(b1-3)GlcNAc(b1-2)Man(a1-6)]Man(b1-4)GlcNAc(b1-4)GlcNAc
# Method in brief: as §1
# [7] = target: Fuc(a1-2)Gal(b1-3)GlcNAc(b1-2)Man(a1-3)[Fuc(a1-2)Gal(b1-3)GlcNAc(b1-2)Man(a1-6)]Man(b1-4)GlcNAc(b1-4)[Fuc(a1-6)]GlcNAc
# Method in brief: as §1
# [8] = target: Fuc(a1-2)Gal(b1-3)GlcNAc(b1-3)Gal(b1-4)Glc
# Method in brief: as §1
# [9] = target: Fuc(a1-2)Gal(b1-3)GlcNAc(b1-3)GalNAc
# Method in brief: as §1
# [10] = target: Fuc(a1-2)Gal(b1-3)GlcNAc(b1-3)[Fuc(a1-2)Gal(b1-3)GlcNAc(b1-6)]GalNAc
# Method in brief: as §1
# [11] = target: Fuc(a1-2)Gal(b1-3)GlcNAc(b1-3)[Gal(b1-4)GlcNAc(b1-6)]Gal(b1-4)Glc
# Method in brief: as §1
# [12] = target: Fuc(a1-2)Gal(b1-3)GlcNAc(b1-3)[Neu5Ac(a2-6)Gal(b1-4)GlcNAc(b1-6)]Gal(b1-4)Glc
# Method in brief: as §1
# [13] = target: Fuc(a1-2)Gal(b1-3)GlcNAc6S
# Method in brief: as §1
# [14] = target: Fuc(a1-2)Gal(b1-3)[Fuc(a1-4)]GlcNAc
# Method in brief: as §1
# [15] = target: Fuc(a1-2)Gal(b1-3)[Fuc(a1-4)]GlcNAc(b1-2)Man(a1-3)[Fuc(a1-2)Gal(b1-3)[Fuc(a1-4)]GlcNAc(b1-2)Man(a1-3)]Man(b1-4)GlcNAc(b1-4)GlcNAc
# Method in brief: as §1
# [16] = target: Fuc(a1-2)Gal(b1-3)[Fuc(a1-4)]GlcNAc(b1-2)Man(a1-3)[Fuc(a1-2)Gal(b1-3)[Fuc(a1-4)]GlcNAc(b1-2)Man(a1-6)]Man(b1-4)GlcNAc(b1-4)[Fuc(a1-6)]GlcNAc(b1-4)[Fuc(a1-6)]GlcNAc
# Method in brief: as §1
# [17] = target: Fuc(a1-2)Gal(b1-3)[Fuc(a1-4)]GlcNAc(b1-3)[Fuc(a1-3)[Gal(b1-4)]GlcNAc(b1-6)]Gal(b1-4)Glc
# Method in brief: as §1
# [18] = target: Fuc(a1-2)Gal(b1-3)[Fuc(a1-4)]GlcNAc(b1-3)[Gal(b1-4)GlcNAc(b1-6)]Gal(b1-4)Glc
# Method in brief: as §1
# [19] = target: Fuc(a1-2)Gal(b1-4)Fuc(a1-3)]GlcNAc(b1-2)Man(a1-3)[Fuc(a1-2)Gal(b1-4)[Fuc(a1-3)]GlcNAc(b1-2)Man(a1-6)]Man(b1-4)GlcNAc(b1-4)GlcNAc
# Method in brief: as §1
# Fuc(a1-2)Gal(b1-4)Glc = target: Fuc(a1-2)Gal(b1-4)Glc
# Method in brief: as §1
# Fuc(a1-2)Gal(b1-4)Glc6S = target: Fuc(a1-2)Gal(b1-4)Glc6S
# Method in brief: as §1
# Fuc(a1-2)Gal(b1-4)GlcNAc = target: Fuc(a1-2)Gal(b1-4)GlcNAc
# Method in brief: as §1
# [20] = target: Fuc(a1-2)Gal(b1-4)GlcNAc(b1-2)Man
# Method in brief: as §1
# [21] = target: Fuc(a1-2)Gal(b1-4)GlcNAc(b1-2)Man(a1-3)[Fuc(a1-2)Gal(b1-4)GlcNAc(b1-2)Man(a1-6)]Man(b1-4)GlcNAc(b1-4)GlcNAc
# Method in brief: as §1
# [22] = target: Fuc(a1-2)Gal(b1-4)GlcNAc(b1-2)Man(a1-3)[Fuc(a1-2)Gal(b1-4)GlcNAc(b1-2)Man(a1-6)]Man(b1-4)GlcNAc(b1-4)[Fuc(a1-6)]GlcNAc
# Method in brief: as §1
# [23] = target: Fuc(a1-2)Gal(b1-4)GlcNAc(b1-2)[Fuc(a1-2)Gal(b1-4)GlcNAc(b1-4)]Man(a1-3)[Fuc(a1-2)Gal(b1-4)GlcNAc(b1-2)Man(a1-6)]Man(b1-4)GlcNAc(b1-4)GlcNAc
# Method in brief: as §1
# [24] = target: Fuc(a1-2)Gal(b1-4)GlcNAc(b1-3)Gal(b1-4)GlcNAc
# Method in brief: as §1
# [25] = target: Fuc(a1-2)Gal(b1-4)GlcNAc(b1-3)Gal(b1-4)GlcNAc(b1-2)Man(a1-3)[Fuc(a1-2)Gal(b1-4)GlcNAc(b1-3)Gal(b1-4)GlcNAc(b1-2)Man(a1-6)]Man(b1-4)GlcNAc(b1-4)GlcNAc
# Method in brief: as §1
# [26] = target: Fuc(a1-2)Gal(b1-4)GlcNAc(b1-3)Gal(b1-4)GlcNAc(b1-3)Gal(b1-4)GlcNAc
# Method in brief: as §1
# [27] = target: Fuc(a1-2)Gal(b1-4)GlcNAc(b1-3)GalNAc
# Method in brief: as §1
# [28] = target: Fuc(a1-2)Gal(b1-4)GlcNAc(b1-3)[Fuc(a1-2)Gal(b1-4)GlcNAc(b1-6)]GalNAc
# Method in brief: as §1
# [29] = target: Fuc(a1-2)Gal(b1-4)GlcNAc(b1-3)[Fuc(a1-3)[Gal(b1-4)]GlcNAc(b1-6)]Gal(b1-4)Glc
# Method in brief: as §1
# [30] = target: Fuc(a1-2)Gal(b1-4)GlcNAc(b1-6)GalNAc
# Method in brief: as §1
# [31] = target: Fuc(a1-2)Gal(b1-4)GlcNAc6S
# Method in brief: as §1
# [32] = target: Fuc(a1-2)Gal(b1-4)[Fuc(a1-3)]GlcNAc
# Method in brief: as §1
# [33] = target: Fuc(a1-2)Gal(b1-4)[Fuc(a1-3)]GlcNAc(b1-2)Man(a1-3)[Fuc(a1-2)Gal(b1-4)[Fuc(a1-3)]GlcNAc(b1-2)Man(a1-6)]Man(b1-4)GlcNAc(b1-4)[Fuc(a1-6)]GlcNAc
# Method in brief: as §1
# [34] = target: Fuc(a1-2)Gal(b1-4)[Fuc(a1-3)]GlcNAc(b1-2)[Fuc(a1-2)Gal(b1-4)[Fuc(a1-3)]GlcNAc(b1-4)]Man(a1-3)[Fuc(a1-2)Gal(b1-4)[Fuc(a1-3)]GlcNAc(b1-2)Man(a1-6)]Man(b1-4)GlcNAc(b1-4)GlcNAc
# Method in brief: as §1
# [35] = target: Fuc(a1-2)Gal(b1-4)[Fuc(a1-3)]GlcNAc(b1-3)Gal(b1-4)[Fuc(a1-3)]GlcNAc
# Method in brief: as §1
# [36] = target: Fuc(a1-2)Gal(b1-4)[Fuc(a1-3)]GlcNAc(b1-3)Gal(b1-4)[Fuc(a1-3)]GlcNAc(b1-3)Gal(b1-4)[Fuc(a1-3)]GlcNAc
# Method in brief: as §1
# [37] = target: Fuc(a1-2)Gal(b1-4)[Fuc(a1-3)]GlcNAc(b1-3)GalNAc
# Method in brief: as §1
# [38] = target: Fuc(a1-2)Gal(b1-4)[Fuc(a1-3)]GlcNAc(b1-3)[Neu5Ac(a2-6)Gal(b1-4)GlcNAc(b1-6)]Gal(b1-4)Glc
# Method in brief: as §1
# [39] = target: Fuc(a1-2)Gal3S(b1-4)GlcNAc
# Method in brief: as §1
binder,measurement,setting,value
B1,glycan array binding signal (z-score),Fuc(a1-2)Gal,-0.212
same,glycan array binding signal (z-score),Fuc(a1-2)Gal(b1-3)GalNAc,-0.137
same,glycan array binding signal (z-score),[1],-0.172
same,glycan array binding signal (z-score),[2],-0.049
same,glycan array binding signal (z-score),[3],-0.022
same,glycan array binding signal (z-score),[4],-0.201
same,glycan array binding signal (z-score),[5],-0.034
same,glycan array binding signal (z-score),Fuc(a1-2)Gal(b1-3)GlcNAc,-0.166
same,glycan array binding signal (z-score),[6],-0.133
same,glycan array binding signal (z-score),[7],-0.147
same,glycan array binding signal (z-score),[8],-0.154
same,glycan array binding signal (z-score),[9],-0.187
same,glycan array binding signal (z-score),[10],-0.15
same,glycan array binding signal (z-score),[11],-0.067
same,glycan array binding signal (z-score),[12],2.82
same,glycan array binding signal (z-score),[13],-0.18
same,glycan array binding signal (z-score),[14],-0.214
same,glycan array binding signal (z-score),[15],0.056
same,glycan array binding signal (z-score),[16],-0.208
same,glycan array binding signal (z-score),[17],-0.205
same,glycan array binding signal (z-score),[18],-0.212
same,glycan array binding signal (z-score),[19],0.104
same,glycan array binding signal (z-score),Fuc(a1-2)Gal(b1-4)Glc,-0.017
same,glycan array binding signal (z-score),Fuc(a1-2)Gal(b1-4)Glc6S,-0.226
same,glycan array binding signal (z-score),Fuc(a1-2)Gal(b1-4)GlcNAc,-0.184
same,glycan array binding signal (z-score),[20],-0.172
same,glycan array binding signal (z-score),[21],0.42
same,glycan array binding signal (z-score),[22],-0.125
same,glycan array binding signal (z-score),[23],-0.117
same,glycan array binding signal (z-score),[24],-0.11
same,glycan array binding signal (z-score),[25],0.028
same,glycan array binding signal (z-score),[26],-0.151
same,glycan array binding signal (z-score),[27],-0.16
same,glycan array binding signal (z-score),[28],-0.164
same,glycan array binding signal (z-score),[29],-0.132
same,glycan array binding signal (z-score),[30],-0.149
same,glycan array binding signal (z-score),[31],-0.022
same,glycan array binding signal (z-score),[32],-0.156
same,glycan array binding signal (z-score),[33],0.108
same,glycan array binding signal (z-score),[34],-0.145
same,glycan array binding signal (z-score),[35],-0.194
same,glycan array binding signal (z-score),[36],-0.169
same,glycan array binding signal (z-score),[37],-0.154
same,glycan array binding signal (z-score),[38],-0.134
same,glycan array binding signal (z-score),[39],-0.169
